Among all 310,000 compounds or so, about 2,200 (0.71%) showed an effect of 50% or more. Effects have a minus sign here. The list shows a part of the results.

For this test, the target named is human ether-à-go-go-related gene (hERG) potassium channel (human, UniProt Q12809). As to the kind of experiment: primary screen, population patch clamp on CHO cells stably expressing hERG.
human ether-à-go-go-related gene (hERG) potassium channel, sequence (Q12809 whole entry, looked up): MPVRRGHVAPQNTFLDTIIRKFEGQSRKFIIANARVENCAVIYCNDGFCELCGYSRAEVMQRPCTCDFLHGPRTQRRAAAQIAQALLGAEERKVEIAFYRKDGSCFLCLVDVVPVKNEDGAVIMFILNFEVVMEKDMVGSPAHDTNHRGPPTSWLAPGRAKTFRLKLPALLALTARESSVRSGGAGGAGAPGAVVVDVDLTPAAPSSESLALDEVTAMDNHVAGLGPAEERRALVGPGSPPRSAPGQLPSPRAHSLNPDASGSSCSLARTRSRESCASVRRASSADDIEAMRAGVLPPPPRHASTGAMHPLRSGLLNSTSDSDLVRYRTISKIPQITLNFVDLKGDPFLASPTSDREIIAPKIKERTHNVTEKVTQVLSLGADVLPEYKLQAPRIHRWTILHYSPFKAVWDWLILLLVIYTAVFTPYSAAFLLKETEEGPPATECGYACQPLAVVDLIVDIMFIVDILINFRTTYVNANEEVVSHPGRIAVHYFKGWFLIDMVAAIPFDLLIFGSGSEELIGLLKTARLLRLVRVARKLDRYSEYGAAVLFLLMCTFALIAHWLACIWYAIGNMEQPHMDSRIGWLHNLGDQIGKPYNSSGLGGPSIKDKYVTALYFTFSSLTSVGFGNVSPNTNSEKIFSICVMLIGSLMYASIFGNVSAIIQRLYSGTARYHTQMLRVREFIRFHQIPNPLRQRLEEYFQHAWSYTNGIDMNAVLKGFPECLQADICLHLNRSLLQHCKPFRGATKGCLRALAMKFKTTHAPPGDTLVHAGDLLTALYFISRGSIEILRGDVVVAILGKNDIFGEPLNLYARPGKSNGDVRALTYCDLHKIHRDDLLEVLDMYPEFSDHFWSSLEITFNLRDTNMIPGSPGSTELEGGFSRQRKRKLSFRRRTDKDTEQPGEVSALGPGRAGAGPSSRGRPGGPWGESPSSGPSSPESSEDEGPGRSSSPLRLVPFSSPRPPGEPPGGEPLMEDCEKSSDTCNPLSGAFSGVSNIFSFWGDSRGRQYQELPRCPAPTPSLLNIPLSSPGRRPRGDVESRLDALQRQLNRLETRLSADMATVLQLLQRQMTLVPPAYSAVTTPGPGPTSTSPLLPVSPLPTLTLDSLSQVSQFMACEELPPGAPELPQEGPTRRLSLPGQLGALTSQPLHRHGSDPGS
As to `COc1ccc(NC(=O)c2cccnc2N2CCOCC2)cc1`, the “hERG current change (%, negative = inhibition) at 1uM” value was 21.2%.
To `COc1ccc(NC(=O)CCNC(=O)Cn2ccc3ccccc3c2=O)cc1Cl` belongs 14.2%; to `CC1CCCN(C(=O)CSCC(=O)N=c2sc3ccccc3n2C)C1` (centres unmarked), 8.59%; to `Cc1cccc(C(=O)NCc2nnc(SCC(=O)Nc3nncs3)n2C)c1`, 1.07%.
For `CCOc1ccc(NC(=O)c2ccc(NC(=O)c3ccc(CN4CCOCC4)cc3)cc2)cc1`, the “hERG current change (%, negative = inhibition) at 1uM” value worked out at 2.16%.
Regarding `CCCCn1c(N)c(N(CCOC)C(=O)CSc2ccc([N+](=O)[O-])cc2)c(=O)[nH]c1=O`, the “hERG current change (%, negative = inhibition) at 1uM” value stood at 2.6%.
For the molecule `Cc1ccc(C)c(NC(=O)c2cc(-c3cc(C)c(C)cc3O)n[nH]2)c1`, the “hERG current change (%, negative = inhibition) at 1uM” value is 9.66%.
As for `O=C(NC1CCCCC1)C(=O)c1c[nH]c2ccccc12`, the “hERG current change (%, negative = inhibition) at 1uM” value was found to be 0.628%.
`S=C1CCC(c2ccc(Br)cc2)=NN1c1ccccc1`: the “hERG current change (%, negative = inhibition) at 1uM” value is on record as -0.47%.
As for `O=C(Nc1ccc(Cl)cc1)N(CCCN1CCOCC1)Cc1cccs1`, the “hERG current change (%, negative = inhibition) at 1uM” value is recorded as -55%.
Regarding `COC(=O)c1ccc(NC(=O)CSc2nnc(C)n2-c2ccccc2)cc1`, the “hERG current change (%, negative = inhibition) at 1uM” value is listed as 7.59%.
For `O=C(COc1ccccc1)Nc1ccccc1N1CCCCC1`, the “hERG current change (%, negative = inhibition) at 1uM” value is given as 6.54%.
Consider `CC1=NN(Cc2ccccc2)C(=O)C1C(c1ccc(Cl)cc1)C(C#N)C#N` (centres unmarked), for which the “hERG current change (%, negative = inhibition) at 1uM” value is given as 20.9%.
Take `O=C(O)c1cccc(N/N=C/c2ccc(OC(F)(F)F)cc2)c1`: the “hERG current change (%, negative = inhibition) at 1uM” value is on record as 11.5%.
Turning to `CCCCn1c(C)cc(/C=C(\C#N)C(=O)O)c1C`, the “hERG current change (%, negative = inhibition) at 1uM” value is -49.3%.
Regarding `CC(=O)c1ccc(N2CCN(CC(=O)N(C3CC3)C3CCS(=O)(=O)C3)CC2)c(F)c1` (centres unmarked), the “hERG current change (%, negative = inhibition) at 1uM” value was -0.135%.
To `O=C1c2ccccc2C(O)N1c1cccnc1` (centres unmarked) belongs 18.8%; to `Cc1cccc(NC(=O)NNC(=O)c2nn(C)cc2Br)c1`, 4.25%.
To `Cc1ccc(OCc2csc(N)n2)cc1` belongs 7.32%.
As to `COc1cc2c(ccc3cc(OC)c(OC)c(O)c32)cc1O`, the “hERG current change (%, negative = inhibition) at 1uM” value stood at 14.6%.
In the case of `CC(C)(C)NC(=O)c1ccc(NC(=O)CSc2ccccc2)cc1`, the “hERG current change (%, negative = inhibition) at 1uM” value is recorded as 9.49%.
Next, `c1coc(-c2ncc[nH]2)c1`: 8.42%; `CC(C)NC(=O)C(Sc1ccccc1)c1ccccc1` (centres unmarked): 16.5%; `COc1ncnc2c1N[C@@](C)(O)c1c(F)c(F)c(F)c(F)c1S2`: 12.9%.
To `CC(C)c1ccc(NC(=O)N2CCC(c3nc4ccccc4o3)CC2)cc1` belongs -13.7%; to `O=C(Cc1ccccc1)c1c[nH]c(C(=O)NCc2ccncc2)c1`, 5.87%; to `Cc1occc1C(=O)Nc1cc(=O)n(C)c(=O)n1C`, 12.4%.
Consider `CCn1c(SCC(=O)N/N=C/c2ccccc2OCC(=O)O)nnc1-c1ccc(C(C)(C)C)cc1`, for which the “hERG current change (%, negative = inhibition) at 1uM” value turned out to be 11.9%.
For `Cc1cccc(OCC(=O)N2CCc3ccccc3C2)c1`, the “hERG current change (%, negative = inhibition) at 1uM” value came out at 13.9%.
For the molecule `COc1ccc(N2CCN(CCNC(=O)CCC(=O)NNc3nc4ccccc4c4nc(C)nn34)CC2)cc1`, the “hERG current change (%, negative = inhibition) at 1uM” value is reported as -3.6%.
To `N#CC(=C1CCCC1)c1nc(-c2ccccc2)cs1` belongs 11.9%; to `CN1CCN(CC(O)(c2ccc(Cl)cc2)c2ccc(Cl)cc2)CC1`, -49.5%.
In the case of `COc1ccc(NC(=O)CSCC(=O)Nc2ccc(S(=O)(=O)N3CCCCC3)cc2)cc1`, the “hERG current change (%, negative = inhibition) at 1uM” value was -9.44%.
Next, `C=CCN1CC2CC3(COc4cc(C)cc(C)c4)C=CC2(O3)C1=O` (centres unmarked): 5.04%.
Turning to `CC(=O)Nc1ccc(/C=C/C(=O)c2ccccc2)cc1`, the “hERG current change (%, negative = inhibition) at 1uM” value stood at 11.6%.
For the molecule `Cc1cc(NC(=O)CC2CCCC2)n(-c2nc3ccccc3[nH]2)n1`, the “hERG current change (%, negative = inhibition) at 1uM” value was -5.12%.
As to `c1ccc(OCc2nn3c(-c4ccccn4)nnc3s2)cc1`, the “hERG current change (%, negative = inhibition) at 1uM” value turned out to be 12.2%.
For the molecule `CC1COc2ccccc2N1C(=O)c1cccnc1Cl` (centres unmarked), the “hERG current change (%, negative = inhibition) at 1uM” value stood at 18.3%.
As to `CCN1CCN(c2c(Cl)cccc2NC(=O)c2ccc([N+](=O)[O-])cc2)CC1`, the “hERG current change (%, negative = inhibition) at 1uM” value is given as -15.9%.
As to `Cc1ccc(OCc2cc(C(=O)NC3CCc4ccccc43)no2)cn1` (centres unmarked), the “hERG current change (%, negative = inhibition) at 1uM” value stood at 13.8%.
On to `COc1ccc(NC(=S)NCCSc2ccc(C)cc2)c(OC)c1`, for which the “hERG current change (%, negative = inhibition) at 1uM” value worked out at 12.6%.
As for `O=C(/C=C/NNC(=O)c1ccccc1)c1ccc([N+](=O)[O-])cc1`, the “hERG current change (%, negative = inhibition) at 1uM” value is reported as 2.79%.
Turning to `COc1ccc(-c2nc(NC(=O)C3=NN(c4cccc(C)c4)C(=O)CC3)sc2C)cc1`, the “hERG current change (%, negative = inhibition) at 1uM” value is given as 3.79%.
Next, `COCC(=O)N(c1ccc(C(C)C)cc1)C1C=CS(=O)(=O)C1` (centres unmarked): 18.2%.

The values above are taken from paper PMC4336329 (PLoS ONE, 2015).
